Data reported in PubChem BioAssay AID624417 (National Center for Advancing Translational Sciences (NCATS), 2012).
Out of some 410,000 compounds screened, about 6,400 (1.6%) were called active. The inconclusive results got no clear call from the source; some entries with a clear call stand among them for comparison. Calls come from the whole dose curve; as a rule, active = well fitted inhibition curve with a large enough effect; inconclusive = small, poorly fitted or top-dose-only effect; inactive = no such curve, though single readings can be large or run the other way. No potency is given beside an inconclusive call; the fits are too rough.

Target: Glucagon-like peptide 1 receptor (Homo sapiens) (UniProt P43220)
Experiment: qHTS of GLP-1 Receptor Inverse Agonists (Inhibition Mode); note: nearly all actives have a fitted effect of over 55% in size
Details: HEK293 GLP-1R CRE-luciferase, luminescence, 24 h, GLP-1R form is constitutively active; activity change, negative = inhibition: at 38.3 µM (top of the series) unless noted
Method in brief: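 HEK293 cells stably co-expressing a cAMP-responsive luciferase reporter and constitutively active GLP-1R were seeded, incubated 12 h, then exposed to compounds for 24 h at 37 C. Luminescence was read 12 min after detection reagent; inverse agonists lower signal.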
% is set by controls: 0 for no effect and ±100 for the full control effect; potency is the fitted concentration of half-maximal effect; tags give direction and shape of the fitted curve.

UniProt P43220, sequence (P43220 whole entry, looked up): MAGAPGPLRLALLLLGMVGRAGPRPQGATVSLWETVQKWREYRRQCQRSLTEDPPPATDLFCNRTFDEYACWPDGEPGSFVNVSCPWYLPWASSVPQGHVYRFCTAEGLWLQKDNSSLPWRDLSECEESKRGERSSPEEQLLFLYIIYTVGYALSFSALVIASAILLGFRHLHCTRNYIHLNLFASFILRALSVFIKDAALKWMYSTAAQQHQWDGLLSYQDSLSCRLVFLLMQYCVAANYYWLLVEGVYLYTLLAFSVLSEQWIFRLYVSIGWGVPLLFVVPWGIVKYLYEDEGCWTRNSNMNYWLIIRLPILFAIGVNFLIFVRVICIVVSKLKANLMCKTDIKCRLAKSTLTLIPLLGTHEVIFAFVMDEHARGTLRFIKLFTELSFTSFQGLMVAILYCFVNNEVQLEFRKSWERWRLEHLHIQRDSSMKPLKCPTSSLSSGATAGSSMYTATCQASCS

Question: For `COc1ccc(CN(C)Cc2nc(Cc3cccc(F)c3)no2)c2cccnc12`, which Potency is on record?
Answer: inactive

Question: With `CCc1cccc(NC(=O)CSC2=Nc3ccccc3N=C(c3ccc(F)cc3)C2)c1` as the compound, how does the Potency read?
Answer: inconclusive [inhibitor, partial curve, poor fit]

Question: `Cc1ccc2[nH]c(-c3cccc(F)c3)cc(=O)c2c1` was tested. Which Potency did it give?
Answer: inconclusive [inhibitor, full curve, poor fit]

Question: Which Potency does the source give for `CCOc1cc(CNc2ccc(O)cc2)ccc1OCc1ccc(Cl)cc1Cl` here?
Answer: inconclusive [inhibitor, single point]

Question: How did the Potency turn out when `CCOC(=O)C1Cn2c(nc3c(c2=O)C(C)(C)Cc2ccccc2-3)S1` (stereo not given) was run?
Answer: inconclusive [inhibitor, partial curve, poor fit]

Question: `COc1cc(NC(=O)CN(c2ccc(C)cc2)S(=O)(=O)c2cccc3nonc23)cc(OC)c1` was tested. Which Potency did it give?
Answer: inconclusive [inhibitor, single point]

Question: For `CC(C)=C1CCC(C)CC1=NNC(N)=S` (stereo not given), which Potency is on record?
Answer: inconclusive [inhibitor, single point]

Question: How did the Potency turn out when `O=C(COC(=O)C1CC1)Nc1ccccc1Sc1ccccc1` was run?
Answer: inconclusive [inhibitor, single point]

Question: How did the Potency turn out when `CCN1CCN(c2nc3c(S(=O)(=O)c4ccc(Br)cc4)nnn3c3ccsc23)CC1` was run?
Answer: inactive

Question: For `C=CCN(C)CC/C=C1\c2ccccc2CSc2ccccc21`, which Potency is on record?
Answer: inconclusive [inhibitor, partial curve, poor fit]

Question: How did the Potency turn out when `O=C(CSc1nnc(CNC(=O)c2cccc(F)c2)n1-c1ccccc1)Nc1ccccc1F` was run?
Answer: inactive

Question: For `Cc1ccc(NC(=O)Cn2cnc3sc(C(=O)O)c(C)c3c2=O)cc1Cl`, which Potency is on record?
Answer: inactive

Question: With `CCNC(=S)N/N=C/c1ccccc1[N+](=O)[O-]` as the compound, how does the Potency read?
Answer: inconclusive [inhibitor, single point]

Question: For `Cc1c(CCNC(=O)c2ccc(Br)o2)sc2nc(-c3ccc(F)cc3)nn12`, which Potency is on record?
Answer: inconclusive [inhibitor, single point]

Question: `COc1ccc(NC(=O)Cn2c(SCc3cc(C)ccc3C)nc3ccncc32)c(OC)c1OC` was tested. Which Potency did it give?
Answer: inconclusive [inhibitor, single point]

Question: How did the Potency turn out when `O=S(=O)(Nc1ccccc1)c1ccc(NS(=O)(=O)c2c(F)cccc2F)cc1` was run?
Answer: inactive

Question: For `CCN(CC)CCNC(=O)c1ccc(NC(=O)c2cccc(S(=O)(=O)N(C)C3CCCCC3)c2)cc1`, which Potency is on record?
Answer: inconclusive [inhibitor, single point]

Question: With `CCOc1ccccc1NC(=O)Cn1cc(C(=O)c2cccc(OC)c2)c(=O)c2ccc(C)nc21` as the compound, how does the Potency read?
Answer: inactive

Question: `CCCc1ccc(C(O)c2ncc(-c3cccc(C)c3)[nH]2)cc1` (stereo not given) was tested. Which Potency did it give?
Answer: inconclusive [inhibitor, single point]

Question: With `O=c1c2cc3ccccc3n2cnn1Cc1ccccc1F` as the compound, how does the Potency read?
Answer: inconclusive [inhibitor, single point]

Question: With `CN(Cc1c(F)cccc1Cl)C(=O)CCc1c[nH]c2ccccc12` as the compound, how does the Potency read?
Answer: inconclusive [inhibitor, single point]

Question: How did the Potency turn out when `Cc1cc(Nc2ccc3c(c2)OCCO3)c2cc(Cl)ccc2n1` was run?
Answer: inconclusive [inhibitor, single point]

Question: For `S=c1[nH]nc(C2CCCCC2)n1/N=C/c1cccc(Cl)c1Cl`, which Potency is on record?
Answer: inconclusive [inhibitor, single point]

Question: With `Cc1cc(CC(C)C)n(-c2nc3ccccc3c(=O)n2OCC(N)=O)n1` as the compound, how does the Potency read?
Answer: inactive

Question: For `O=S(=O)(c1ccc2ccccc2c1)N1CCN(C2Cc3ccccc3C2)CC1`, which Potency is on record?
Answer: inactive

Question: For `CCCC1=NN(C(=O)Cc2ccc(OC)cc2)C(O)(C(F)(F)F)C1` (stereo not given), which Potency is on record?
Answer: inconclusive [inhibitor, single point]

Question: With `COc1cccc2sc(N(CCCN(C)C)C(=O)COc3ccc(Cl)cc3)nc12` as the compound, how does the Potency read?
Answer: inactive

Question: How did the Potency turn out when `O=C(NC1CCCCC1)C(c1ccnc2ccccc12)n1c(=O)c(-c2cc3ccccc3[nH]2)nc2ccccc21` (stereo not given) was run?
Answer: inconclusive [inhibitor, partial curve, poor fit]

Question: With `CC(Nc1ccc(Cl)cc1)c1cc(Cl)ccc1O` (stereo not given) as the compound, how does the Potency read?
Answer: inconclusive [inhibitor, partial curve, poor fit]

Question: With `O=C(NCc1ccc(F)cc1)c1cc2n(n1)CCCN(Cc1ccc(F)cc1)C2=O` as the compound, how does the Potency read?
Answer: inactive

Question: Which Potency does the source give for `Cc1ccc(C)c(N2CCN(CCCNC(=O)c3cnn(-c4ccccc4Cl)c3C3CCN(C(=O)OC(C)(C)C)CC3)CC2)c1` here?
Answer: inconclusive [inhibitor, single point]

Question: With `Cc1c(C(=O)NCCc2ccccc2)oc2ccc(S(=O)(=O)N3CCC4(CC3)OCCO4)cc12` as the compound, how does the Potency read?
Answer: inconclusive [inhibitor, single point]

Question: `Cc1cc(=O)[nH]c(SCC(=O)Nc2ccc(Br)cc2)c1C#N` was tested. Which Potency did it give?
Answer: inconclusive [inhibitor, partial curve, poor fit]

Question: For `Cc1ccc(C)c(N2CCN(C(c3ccccc3)c3nnc(-c4ccccc4F)o3)CC2)c1` (stereo not given), which Potency is on record?
Answer: inconclusive [inhibitor, single point]

Question: With `O=C(NCC(c1ccco1)N1CCCC1)c1cn(Cc2ccccc2)nc1-c1ccccc1` (stereo not given) as the compound, how does the Potency read?
Answer: inconclusive [inhibitor, single point]

Question: For `O=C1/C(=C/c2ccco2)CCC1C1CCCC1` (stereo not given), which Potency is on record?
Answer: inactive

Question: `O=C(O)CN=C(Nc1cc(Cl)cc(Cl)c1)NC(c1ccccc1)c1ccccc1` was tested. Which Potency did it give?
Answer: inconclusive [inhibitor, single point]

Question: How did the Potency turn out when `CC(C)(C)c1cc(C(=O)Nc2ccc(F)cc2)n(Cc2ccc(F)cc2)n1` was run?
Answer: active: 2.82 µM

Question: How did the Potency turn out when `CCCNC(=O)c1cc(Cl)c(NC(=O)C2=C(C)OCCS2)cc1OC` was run?
Answer: inactive

Question: For `Cc1ccc2oc(-c3ccc(NC(=O)c4ccc5c(c4)OCO5)cc3)nc2c1`, which Potency is on record?
Answer: inactive

Question: With `CCCCN(CC)CCCNC(=O)C1CCN(c2ncnc3c2sc2cccc(F)c23)CC1` as the compound, how does the Potency read?
Answer: inconclusive [inhibitor, partial curve, poor fit]

Question: Which Potency does the source give for `O=C(CCc1nc(-c2cccs2)no1)Nc1cccc([N+](=O)[O-])c1` here?
Answer: inactive

Question: For `Cc1cn([C@H](C(=O)NCCCCCCCCCCC(=O)N2CCN(C(=O)OC(C)(C)C)CC2)[C@@H](C)O)nn1`, which Potency is on record?
Answer: inconclusive [inhibitor, partial curve, poor fit]

Question: Which Potency does the source give for `O=C(CSCc1cccc(Br)c1)N=Nc1c(O)[nH]c2ccccc12` here?
Answer: inconclusive [inhibitor, single point]

Question: `Cc1cccc(N2CCN(S(=O)(=O)c3ccc(Cl)nc3)CC2C)c1` (stereo not given) was tested. Which Potency did it give?
Answer: inconclusive [inhibitor, single point]

Question: For `CN(CC(=O)Nc1ccc(F)cc1)C(=O)c1cn(-c2ccccc2)nc1-c1cccs1`, which Potency is on record?
Answer: inconclusive [inhibitor, partial curve, poor fit]

Question: Which Potency does the source give for `CN(C)S(=O)(=O)c1ccc(C(=O)Nc2nnc(-c3ccc4c(c3)CCCC4)o2)cc1` here?
Answer: inconclusive [inhibitor, partial curve]

Question: `COc1ccc(C2c3ccc4ccccc4c3Oc3ncn(Cc4ccco4)c(=N)c32)cc1OC` (stereo not given) was tested. Which Potency did it give?
Answer: inconclusive [inhibitor, partial curve, poor fit]

Question: `CCOC(=O)C1CCCN(C(=O)c2ccc3nc(-c4ccccc4)c(-c4ccccc4)nc3c2)C1` (stereo not given) was tested. Which Potency did it give?
Answer: inconclusive [inhibitor, single point]

Question: For `Cc1ccccc1C(=O)N1N=C(c2cccc(NS(C)(=O)=O)c2)CC1c1cccs1` (stereo not given), which Potency is on record?
Answer: inconclusive [inhibitor, single point]

Question: For `O=C(CO/N=C/c1ccc2c(c1)OCO2)Nc1cccc(Br)c1`, which Potency is on record?
Answer: inconclusive [inhibitor, single point]

Question: `Nc1nc(SCc2ccccc2)c2ncn(C3CCCCC3)c2n1` was tested. Which Potency did it give?
Answer: inconclusive [inhibitor, partial curve, poor fit]

Question: For `CNc1oc(-c2ccccc2Cl)nc1P(=O)(c1ccccc1)c1ccccc1`, which Potency is on record?
Answer: inconclusive [inhibitor, single point]

Question: `O=C(N/C(=C\c1cccc(Br)c1)C(=O)N1CCCCC1)c1ccco1` was tested. Which Potency did it give?
Answer: inconclusive [inhibitor, partial curve, poor fit]

Question: How did the Potency turn out when `CCc1nc(-c2cc3ccc(C)cc3[nH]c2=O)no1` was run?
Answer: inactive

Question: How did the Potency turn out when `COc1ccccc1CNC(=O)CCCc1cn(C)c2ccccc12` was run?
Answer: inconclusive [inhibitor, partial curve, poor fit]

Question: How did the Potency turn out when `Cc1ccc(S(=O)(=O)c2nnn3c2nc(Nc2cccc(C)c2)c2ccccc23)cc1` was run?
Answer: inactive

Question: `COc1ccc(NC(=O)C2Cc3c(-c4cccc(C(N)=O)c4)ccnc3O2)cc1OC` (stereo not given) was tested. Which Potency did it give?
Answer: inactive

Question: `Nc1ccc(C(=O)OCCCc2nc3cc4ccccc4cc3[nH]2)cc1` was tested. Which Potency did it give?
Answer: inconclusive [inhibitor, partial curve, poor fit]

Question: With `COc1ccc(CN2CCN(Cc3cc(=O)oc4cc(C)ccc34)CC2)c(OC)c1OC` as the compound, how does the Potency read?
Answer: inconclusive [inhibitor, partial curve, poor fit]

Question: How did the Potency turn out when `CC1=NN(/C(=N\c2nnc(C)s2)Nc2ccc(C(C)(C)C)cc2)[C@H](c2ccc(C)cc2)S1` was run?
Answer: inconclusive [inhibitor, partial curve]

Question: With `O=C(O)c1ccc(N/N=C/c2cc(Br)cs2)cc1` as the compound, how does the activity change, negative = inhibition read?
Answer: inconclusive: -57.9% [inhibitor]

Question: With `Cc1ccc(-n2nc3c(=O)n(C(C)C(=O)NCCC4=CCCCC4)nc(C)c3c2C)cc1` (stereo not given) as the compound, how does the Potency read?
Answer: inconclusive [inhibitor, partial curve, poor fit]

Question: Which Potency does the source give for `CCCCNc1nc2c(c(=O)n(Cc3ccc(Cl)cc3)c(=O)n2C)n1C` here?
Answer: inactive

Question: For `CC(=O)NC(=S)Nc1cccc2ccc(C)nc12`, which Potency is on record?
Answer: inactive
